Results: PubChem BioAssay (Tox21)
Where “and” joins values, the source holds several entries; their conditions need not be identical. Equal values may be shown once. Inconclusive means that the source gave no clear call. Such entries were picked first, then a sample of the others. Potencies beside an inconclusive call are fits to weak or partial responses and may not hold up. Calls of active or inactive are those of the source. Calls follow the shape of the dose curve; as a rule, active = well fitted cell-killing curve with a large enough effect in the repeat runs; inconclusive = weak or mixed curves, or effect the other way; inactive = flat fitted curve, though single readings scatter.

Experiment: qHTS RealTime-Glo MT Cell Viability Assay in HepG2 cells - 0 hour (AID 1224889); also: nearly all actives have a fitted effect of over 50% in size
Conditions: RealTime-Glo luminescence; series mostly up to 76.8 µM
Procedure, shortened: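 Tox21 10K library screened in qHTS format on HepG2 cells carrying RealTime-Glo reagents. Compounds were added after a 5 h preincubation, and the luminescent signal from continuous culture was measured repeatedly during 40 h treatment.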
Potency is read from the fitted curve at half-maximal effect; tags tell the direction and shape of the fitted curve.

Compound | Potency
COc1ccc(C(=O)CC(=O)c2ccc(C(C)(C)C)cc2)cc1 | inactive
CCCC1O[C@@H]2C[C@H]3[C@@H]4CCC5=CC(=O)C=C[C@]5(C)[C@H]4[C@@H](O)C[C@]3(C)[C@]2(C(=O)CO)O1 (stereo not given in full) | active: 7.77 µM and active: 7.76 µM
Oc1c(Cl)cc(Cl)cc1Sc1cc(Cl)cc(Cl)c1O | inconclusive: 34.8 µM [cytotoxic, partial curve] and inconclusive: 38.9 µM [cytotoxic, partial curve]
O=C1OC2(c3ccccc31)c1cc(I)c(O)c(I)c1Oc1c2cc(I)c(O)c1I | active: 12.3 µM [middle of 4 runs]
CC(C)C(C)(C)C(C)(C)C(C)(C)S | inconclusive: 43.6 µM [cytotoxic, partial curve, poor fit]
